The whole screen tested about 310,000 compounds, of which about 2,200 (0.71%) showed an effect of 50% or more. Effects have a minus sign here. The list shows a part of the results.
target: human ether-à-go-go-related gene (hERG) potassium channel (human, UniProt Q12809); test: primary screen, population patch clamp on CHO cells stably expressing hERG
Sequence (Q12809 whole entry, looked up): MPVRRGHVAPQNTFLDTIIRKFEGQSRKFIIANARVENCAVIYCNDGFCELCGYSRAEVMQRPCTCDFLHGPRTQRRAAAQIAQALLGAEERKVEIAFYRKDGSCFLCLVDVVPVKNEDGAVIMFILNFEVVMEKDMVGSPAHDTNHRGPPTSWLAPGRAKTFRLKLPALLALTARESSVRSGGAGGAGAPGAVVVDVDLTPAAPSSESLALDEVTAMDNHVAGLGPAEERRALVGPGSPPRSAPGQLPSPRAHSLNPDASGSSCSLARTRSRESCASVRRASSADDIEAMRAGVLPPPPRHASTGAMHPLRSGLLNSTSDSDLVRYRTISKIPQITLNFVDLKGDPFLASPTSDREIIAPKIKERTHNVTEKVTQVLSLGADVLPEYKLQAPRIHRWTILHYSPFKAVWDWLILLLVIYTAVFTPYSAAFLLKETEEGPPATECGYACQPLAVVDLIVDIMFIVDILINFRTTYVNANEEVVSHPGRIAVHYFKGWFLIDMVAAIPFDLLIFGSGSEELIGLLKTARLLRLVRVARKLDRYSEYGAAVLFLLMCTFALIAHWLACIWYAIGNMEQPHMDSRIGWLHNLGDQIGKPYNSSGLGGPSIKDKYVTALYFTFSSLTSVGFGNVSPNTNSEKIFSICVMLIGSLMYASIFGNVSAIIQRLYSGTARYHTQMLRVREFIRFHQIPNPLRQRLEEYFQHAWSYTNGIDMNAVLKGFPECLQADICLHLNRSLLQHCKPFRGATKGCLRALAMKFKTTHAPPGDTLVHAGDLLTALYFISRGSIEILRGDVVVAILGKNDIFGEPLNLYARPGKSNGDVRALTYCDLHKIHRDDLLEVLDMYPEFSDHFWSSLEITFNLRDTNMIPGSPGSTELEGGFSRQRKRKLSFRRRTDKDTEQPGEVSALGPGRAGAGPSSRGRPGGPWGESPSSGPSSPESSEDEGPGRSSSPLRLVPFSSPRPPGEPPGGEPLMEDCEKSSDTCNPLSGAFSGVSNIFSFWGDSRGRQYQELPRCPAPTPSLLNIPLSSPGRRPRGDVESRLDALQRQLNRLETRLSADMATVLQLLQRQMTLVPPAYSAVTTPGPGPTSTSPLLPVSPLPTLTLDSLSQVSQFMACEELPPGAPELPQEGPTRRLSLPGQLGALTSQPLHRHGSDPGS

Row | SMILES | hERG current change (%, negative = inhibition) at 1uM [%]
1 | CCOc1ccc(/C=C/C(=O)c2c(O)cc(C)oc2=O)cc1 | 5.52
2 | CCOC(=O)Nc1ccc2c(c1)OCO2 | 24.9
3 | Cc1ccc(CN2[C@@H](CC3CCCCC3)COCCS2(=O)=O)cc1 | -9
4 | CCC(COC)NC(=O)CCc1nnc(Cc2cccc(C(F)(F)F)c2)o1 (stereo not shown) | 14.8
5 | CCN1CCN(C(=O)CSc2nc3c(c(=O)n(C)c(=O)n3C)n2C)CC1 | 12.8
6 | O=C(C1=C(O)C(=O)N(Cc2ccccc2)C1c1cccnc1)c1ccco1 (stereo not shown) | 3.89
7 | Cc1ccc(NCC(=O)N/N=C\c2ccc[nH]2)cc1 | 6.75
8 | Cc1ccccc1-n1c(-c2csc(C)c2C)n[nH]c1=S | 7.59
9 | C=CCn1c(C)nnc1SCC(=O)NC1CC1 | 11.7
10 | CC(C)CNC(=O)C(=O)NCC1OCCCN1S(=O)(=O)c1ccc2c(c1)OCCO2 (stereo not shown) | 12.2
11 | Cc1cc(O)c(C(=O)Nc2cccc(Cl)c2)c(=O)n1C | 17
12 | O=C1CS/C(=N/N=C/c2cccs2)N1Cc1ccc(F)cc1 | 7.95
13 | CC(OC(=O)c1ccc2c(=O)n3c(nc2c1)CCC3)C(=O)Nc1ccc(C(N)=O)cc1 (stereo not shown) | 6.17
14 | CCOc1ccccc1O[C@H](c1ccccc1)[C@H]1CNCCO1.CS(=O)(=O)O.O | 18.2
15 | Cc1ccc(N2CCC(N3CCN(C)C(CCO)C3)CC2)cc1 (stereo not shown) | 13.9
16 | O=C(Oc1ccc[nH]c1=O)c1cc([N+](=O)[O-])cc([N+](=O)[O-])c1 | 7.41
17 | O=C(Cn1nnc2ccccc2c1=O)NCC1CCC(C(=O)O)CC1 (stereo not shown) | 16.1
18 | CC(C)Cn1c(N)c(C(=O)CSc2ncnc3sc4c(c23)CCCC4)c(=O)n(C)c1=O | 2.03
19 | C=CCN(c1ccccc1)S(=O)(=O)c1cccc(C(=O)Nc2ncccc2O)c1 | 9.88
20 | O=C(O)C1CCN(C(=O)CSc2nc3ccccc3s2)CC1 | 10.9
21 | Cc1cc(Cl)ccc1OCCCC(=O)NCc1ccncc1 | -11.1
22 | O=C(CC1SC2=NCCN2C1=O)Nc1ccccc1 (stereo not shown) | 4.6

Row | SMILES | hERG current change (%, negative = inhibition) at 1uM [%]
23 | Cc1cc2ncn(-c3ncnc4sc5c(c34)CCCC5)c2cc1C | 4.3
24 | O=C(c1ccc(Cl)cc1)c1cnc2ccccn12 | 11.2
25 | CNC(=S)N/N=C/c1ccc(OCc2ccccc2)c(Br)c1 | 6.32
26 | O=C(NCc1cccc(Cl)c1)c1ccc2c(c1)SC1=NS(=O)(=O)CCN12 | 12.8
27 | COC(=O)C1=Nc2ccccc2/C1=C\c1c(O)n(-c2ccc(Br)cc2)c(=O)[nH]c1=O | 15.5
28 | CCN(CC)c1ncccc1C(=O)NCc1cccs1 | 5.67
29 | CCn1c(SCC(=O)NC(=O)NCc2ccco2)nc2sc(C)c(C)c2c1=O | 7.46
30 | N#Cc1nc(COc2ccccc2)oc1NCCCn1ccnc1 | -28.3
31 | OCc1nc2ccccc2n1CCCOc1ccc(Br)cc1 | 13.9
32 | COC(=O)C(NC(=O)CSc1nc(N)cc(=O)[nH]1)c1ccccc1 (stereo not shown) | 17.7
33 | CCCS(=O)(=O)N1CCCC(C(=O)NCCN(CC)CC)C1 (stereo not shown) | 5.33
34 | O=C(O)COc1c(Cl)cc(/C=C2\NC(=O)NC2=O)cc1Br | 16.8
35 | O=C(COC(=O)CCCN1C(=O)c2cccc3cccc(c23)C1=O)Nc1cccc(C(F)(F)F)c1 | 4.08
36 | Cc1ccc(C(C)(C)C)cc1S(=O)(=O)Nc1ncnc2sccc12 | 7.99
37 | CCOC(=O)C[C@H]1c2ccc(C(F)(F)F)cc2S(=O)(=O)N1C(C)(C)C | 9.23
38 | COc1cc(C2C(=O)N(C3CCCC3)CC(=O)N2Cc2ccco2)ccc1OC(C)C (stereo not shown) | 1.4
39 | COc1ccc(CC(=O)Nc2cccc(C(=O)Nc3ccccc3C(=O)O)c2)cc1OC | 14.6
40 | CC(C)c1nccn1S(=O)(=O)c1cccc([N+](=O)[O-])c1 | 5.68
41 | Cc1cc2ccccc2c(=O)n1CC(=O)NCC(=O)N1CCCC(C)C1 (stereo not shown) | 16.4
42 | COc1ccc(CCNC(=O)c2cc3c(cc2Cl)N2CCCCCC2=NS3(=O)=O)cc1 | -8.34
43 | Cc1ccc(Nc2c(-c3ccccc3)nc3cnccn23)cc1 | 11.3
44 | COc1ccc(CNC(=O)Cc2cccs2)cc1 | 18.5

Row | SMILES | hERG current change (%, negative = inhibition) at 1uM [%]
45 | COc1ccc(CNC(=O)C2CCN(S(=O)(=O)c3ccc4c(c3)NC(=O)C(C)S4)CC2)cc1 (stereo not shown) | 7.4
46 | COc1ccc(/C(N)=N/OC(=O)Cc2ccccc2)cc1 | -1.47
47 | CCOc1ccc(S(=O)(=O)N2CCCC(C(=O)NCc3cccnc3)C2)cc1Cl (stereo not shown) | -1.43
48 | COc1ccc(CNC(=O)C2CCN(S(C)(=O)=O)CC2)c(OC)c1 | 5.97
49 | COC(=O)c1cc(=O)nc2scc(C)n12 | -1.51
50 | CNC(=O)c1cc2cc(OC)ccc2n1CCN(C)C | 6.7
51 | COc1ccccc1NC(=O)CSc1ccc2nnc(CCNC(=O)c3ccccc3)n2n1 | 17.4
52 | COCCNc1oc(/C=C/c2ccccc2)nc1C#N | 7.53
53 | CC(C)C(=O)c1cn(CC(=O)NCc2ccco2)c2ccccc12 | 21.8
54 | CCCCN(CC)CCCNC(=O)c1ccc2c(c1)N(CC)C(=O)c1ccccc1S2(=O)=O | 9.42
55 | CNC(=O)COc1ccc(S(=O)(=O)Nc2ccc(OC)cc2)cc1 | 16.1
56 | O=C(Nc1ccccc1-c1nnn(CC(=O)N2CCCc3ccccc32)n1)c1cccc(Cl)c1 | 8.6
57 | Cc1cc(C(F)(F)F)n2nc(C)c(-c3ccc(Cl)cc3)c2n1 | 12.9
58 | CCOC(=O)C1CCN(S(=O)(=O)c2ccc(Cl)cc2)CC1 | 5.42
59 | COc1ccc([C@@H]2CC=C(C(=O)O)[C@H](c3cccc(Cl)c3)N2S(=O)(=O)c2ccccc2C)cc1 | 22.1
60 | Cc1ccc2[nH]c(=O)c(CN(C)S(=O)(=O)c3cccc4nonc34)cc2c1 | 18
61 | COc1cccc(CSc2nnc(-c3ccncc3)n2N)c1 | 9.23
62 | CC(Cc1c[nH]c2ccccc12)C(=O)NCc1ccco1 (stereo not shown) | 5.07
63 | CC1CCCC(C)N1S(=O)(=O)c1ccc(NC(=O)CNCC2CCCO2)cc1.O=C(O)C(=O)O (stereo not shown) | -6.48
64 | O=Cc1c(NCCN2CCOCC2)c2ccccc2[nH]c1=O | 24.1
65 | O=C1CN(C(=O)COc2ccc(Br)cc2)c2ccccc2N1 | 7.44
66 | COc1ccc(-n2nc(C(=O)NCC(=O)NCC3COc4ccccc4O3)c3ccccc3c2=O)cc1OC (stereo not shown) | 7.16

Row | SMILES | hERG current change (%, negative = inhibition) at 1uM [%]
67 | CCOC(=O)c1ccc2cccc(C)n2c1=O | 5.86
68 | NNC(=O)CNC(c1ccccc1)c1cc(Br)ccc1NC(=O)c1ccccc1Br (stereo not shown) | -3.12
69 | COc1ccc2oc(=O)c(C(=O)N3CCN(C(=O)c4ccco4)CC3)cc2c1 | 4.72
70 | O=C(COc1ccc2ccccc2c1)NCCNC(=O)COc1ccc2ccccc2c1 | 14.8
71 | CCOC(=O)N1CCN(Cc2nc3c(c(=O)n(C)c(=O)n3C)n2Cc2cccc3ccccc23)CC1 | -2.27
72 | CCCCn1c(SCC(=O)Nc2nnc(CC)s2)nc2c1c(=O)n(C)c(=O)n2C | 0.776
73 | CCOc1ccc(CCNC(=O)Cn2ncn3nc(-c4ccc(OC)cc4)cc3c2=O)cc1OCC | 4.27
74 | O=C(Cc1ccccc1)c1c[nH]c(C(=O)C(Cl)(Cl)Cl)c1 | 11.4
75 | CCOc1ccc(Cn2ccnc2CCl)cc1[N+](=O)[O-] | -6.9
76 | CCN(CC(=O)Nc1ccc(NC(C)=O)cc1)C(=O)CSc1ncnc2sc(C)c(C)c12 | 11
77 | COc1ccc(C(=O)NC2CCN(CC(=O)NCc3cccc(OC)c3)CC2)cc1 | 2.46
78 | CCCn1c2ccccc2c2nnc(SC(CC)C(=O)Nc3sc4c(c3C#N)CCCC4)nc21 (stereo not shown) | 16.1
79 | COc1cccc(NC(=O)CSc2nccn(-c3ccc4c(c3)OCCO4)c2=O)c1 | 4.61
80 | Cc1csc(NS(=O)(=O)c2ccc(Cl)cc2)n1 | -0.497
81 | COc1ccc(-c2nn(-c3ccccc3)cc2CNC(C)Cn2cncn2)c(F)c1 (stereo not shown) | 2.88
82 | COc1ccccc1NC(=O)COC(=O)c1cc([N+](=O)[O-])ccc1N1CCCC1 | 5.09
83 | CSc1ccccc1C(=O)Nc1nc2ccccc2c(=O)[nH]1 | 12.8
84 | COc1ccc(Cn2nnnc2C(c2ccc(C)cc2)N2CCN(C3CCCC3)CC2)cc1.Cl (stereo not shown) | -32.4
85 | O=C(N/N=C/c1ccccc1)c1ccc(N2CCOCC2)c([N+](=O)[O-])c1 | 0.857
86 | COc1ccc(Oc2ccccc2/C=N/O)cc1 | 8.34
87 | Cc1c(CCC(=O)O)c(=O)oc2cc(OCc3ccccc3F)ccc12 | 15.5
88 | O=C(Nc1cccc(C(=O)N2CCCCC2)c1)c1ccc(Cl)cc1 | 16.6

From publication PMC4336329 (PLoS ONE, 2015)
